Out of some 310,000 compounds screened, about 2,200 (0.71%) showed an effect of 50% or more. Effects have a minus sign here. The list shows a part of the results.
The molecules below were run against human ether-à-go-go-related gene (hERG) potassium channel (human, UniProt Q12809) (assay: primary screen, population patch clamp on CHO cells stably expressing hERG).
human ether-à-go-go-related gene (hERG) potassium channel, sequence (Q12809 whole entry, looked up): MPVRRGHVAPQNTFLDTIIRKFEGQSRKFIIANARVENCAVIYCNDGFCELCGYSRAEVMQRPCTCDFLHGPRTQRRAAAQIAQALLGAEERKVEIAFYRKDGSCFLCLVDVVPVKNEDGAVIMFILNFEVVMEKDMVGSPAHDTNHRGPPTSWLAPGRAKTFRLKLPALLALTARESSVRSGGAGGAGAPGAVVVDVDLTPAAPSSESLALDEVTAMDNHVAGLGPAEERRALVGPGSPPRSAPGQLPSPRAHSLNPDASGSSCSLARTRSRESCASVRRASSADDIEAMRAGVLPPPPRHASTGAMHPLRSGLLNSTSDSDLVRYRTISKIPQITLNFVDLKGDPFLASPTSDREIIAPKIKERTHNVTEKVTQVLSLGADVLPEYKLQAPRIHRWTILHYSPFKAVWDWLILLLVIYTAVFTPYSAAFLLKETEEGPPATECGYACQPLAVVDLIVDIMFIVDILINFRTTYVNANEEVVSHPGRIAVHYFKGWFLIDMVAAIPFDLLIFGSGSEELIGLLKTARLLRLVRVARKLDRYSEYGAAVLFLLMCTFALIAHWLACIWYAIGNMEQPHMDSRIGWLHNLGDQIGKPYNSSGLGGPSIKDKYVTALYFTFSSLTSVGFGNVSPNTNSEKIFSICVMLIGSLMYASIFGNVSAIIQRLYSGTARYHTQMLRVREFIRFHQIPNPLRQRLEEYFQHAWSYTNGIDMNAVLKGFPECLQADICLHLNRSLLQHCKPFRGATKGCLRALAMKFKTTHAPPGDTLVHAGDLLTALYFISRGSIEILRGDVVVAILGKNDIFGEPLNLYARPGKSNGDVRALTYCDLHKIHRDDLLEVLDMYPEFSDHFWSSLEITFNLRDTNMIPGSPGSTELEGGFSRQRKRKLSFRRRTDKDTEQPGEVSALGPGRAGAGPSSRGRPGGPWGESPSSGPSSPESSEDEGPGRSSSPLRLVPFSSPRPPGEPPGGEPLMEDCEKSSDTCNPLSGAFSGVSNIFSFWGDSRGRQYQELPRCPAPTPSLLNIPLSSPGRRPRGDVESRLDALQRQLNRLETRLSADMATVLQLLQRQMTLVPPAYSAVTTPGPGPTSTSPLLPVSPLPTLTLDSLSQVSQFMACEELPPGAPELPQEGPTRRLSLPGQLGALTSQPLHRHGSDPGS

Compound	hERG current change (%, negative = inhibition) at 1uM
NC(=O)/C(=C\c1ccco1)NC(=O)c1ccc(Br)o1	1.36%
CC(OC(=O)c1cccc(-n2cnnn2)c1)C(=O)N(C)c1ccccc1 (stereo not shown)	-4.76%
COc1ccc(/C=C/C(=O)N[C@@H](C)C(=O)O)cc1	4.64%
CCOC(=O)C1=C(C)N=c2s/c(=C\c3ccc(OCC(=O)O)cc3)c(=O)n2C1c1ccc(Cl)cc1 (stereo not shown)	19.1%
O=C(NCc1cccc(CNC(=O)c2ccco2)c1)c1ccco1	26.1%
CCN(CC)C(=O)Cn1c(=O)n(CCCCCC(=O)Nc2ccccc2)c(=O)c2sccc21	-7.94%
CCN(C(=O)CSc1nnc(Cc2ccccc2F)n1N)C1CCS(=O)(=O)C1 (stereo not shown)	9.21%
CCCc1c(NC(=O)Nc2ccc(F)cc2)cnn1-c1ccc(Cl)cc1	9.29%
COc1ccccc1NC(=O)NC(=O)N(C(C)C)S(C)(=O)=O	15.8%
Cc1cccc(NC(=O)CCC(=O)N/N=C/c2cccnc2)c1	4.86%
COc1ccc(C(=O)Nc2cccc(NC(C)=O)c2)cc1OC	14.3%
C/C=C\C=C/C(=O)Nc1cccc(C2=NOC3(C2)C[C@@H](C(N)=O)N(C(=O)CCCCC)C3)c1 (stereo partly shown)	0.577%
CC(C)(C)c1ccc(-c2noc(CCC(=O)N3CCOCC3)n2)cc1	13.1%
CCC(CNC(=O)c1c(C)nn(-c2ccccc2)c1Cl)c1ccccc1 (stereo not shown)	13.3%
CN(C)/C=C1/Oc2c(ccc3ccccc23)C1=O	10.4%
O=C(/C=C/c1ccc(-c2ccccc2)cc1)NCc1cccnc1	4.19%
CCSC(=S)c1c(C)[nH]n(-c2ccccc2)c1=O	11.7%
CCO[C@@H]1OC(C(=O)N2CCCCCCC2)=C[C@H](c2ccc(C(F)(F)F)cc2)[C@H]1CCCO	0.366%
CN1C(=O)c2cccc3c(Br)ccc(c23)C1=O	5.79%
COC(=O)c1ccc(NC(=S)N(Cc2cccnc2)Cc2ccco2)cc1	-6.09%
CC1(OC(=O)c2cnc3ccccc3n2)C(=O)C=C2C=C(C3CC3)OC=C2C1=O (stereo not shown)	9.15%
COc1cccc(C(=O)NNC(=O)CCC(=O)O)c1	9.94%

Compound	hERG current change (%, negative = inhibition) at 1uM
O=C(CSc1nncn1-c1ccccc1)Nc1ccc(N2CCOCC2)cc1	12.2%
O=C1CC(N2CC=C(c3ccccc3)CC2)C(=O)N1c1ccc(F)cc1 (stereo not shown)	-1.78%
O=C(O)c1ccc(-n2nnnc2SCc2ccccc2)cc1	7.44%
Cc1onc(-c2c(F)cccc2Cl)c1C(=O)OCc1nnc(-c2ccccc2)o1	1.85%
COc1ccc(/C=C/C(=O)NC(=S)Nc2ccc(S(=O)(=O)N=C(N)N)cc2)cc1OC	-18.3%
Cc1cc(O)c(C(=O)/C=C/c2ccc(C(C)C)cc2)c(=O)o1	12.6%
Cc1cc(Cl)ccc1NC(=O)C(=O)N/N=C/c1ccc2c(c1)OCO2	15%
O=C(c1cc(COc2ccc(F)c(F)c2)on1)N1CCN(C2CCCCC2)C(=O)C1	4.46%
Cc1occc1-c1nnc(SCC(=O)NCC2CCCO2)n1C (stereo not shown)	3.59%
COc1ccc(N/C=C(/C(C)=O)c2ccccc2)cc1	-9.25%
Cc1c(NC(=O)NCc2ccccc2)c(=O)n(-c2ccccc2)n1C	1.89%
Cc1cc(C)c2sc(N(CCN(C)C)C(=O)c3c(F)cccc3F)nc2c1.Cl	13.1%
CCOC(=O)c1ccc(NC(=O)CN(C)S(=O)(=O)c2ccc(OC)cc2)cc1	5.86%
Nc1ncnc2c1ncn2Cc1ccccc1	7.35%
CC(=O)Nc1ccc(-n2c(=O)c3ccccc3c3ccccc3c2=O)cc1	9.46%
COc1ccccc1N1CCN(Cc2cc3c(cc2O)OCO3)CC1	1.15%
Fc1ccc(NC(=S)Nc2ccc3nccnc3c2)cc1	9.67%
Cc1ccc(-c2noc(CN(C(=O)C34CC5CC(CC(C5)C3)C4)C(C)C)n2)cc1	-1.3%
O=C1Nc2ccc(Cl)cc2C(C#CC2CC2)(C(F)(F)F)O1 (stereo not shown)	12.9%
CCOc1ccc(NC(=O)Nc2cc(OCC(F)(F)F)cc(OCC(F)(F)F)c2)cc1	19.6%
CCCC(O)(CCC)C(=O)NNc1ccc(C)cc1	13.9%
CC(N)C(=O)OC(C)(C)Cc1ccc(Cl)cc1.Cl (stereo not shown)	13.2%

Compound	hERG current change (%, negative = inhibition) at 1uM
O=C(NC1CCCCCC1)c1cc(=O)[nH]c2ccc(S(=O)(=O)N3CCOCC3)cc12	1.03%
CCn1c2c(c3ccc(OC)cc31)CCCC2=O	12.1%
O=C(NCCCO)C(=O)NCC(c1ccc2c(c1)OCO2)N1CCN(c2ccc(F)cc2)CC1 (stereo not shown)	-3.74%
COc1ccccc1/C=C1\SC(=S)N(CCC(=O)NCCCN2CCOCC2)C1=O	4.66%
CC(C(N)=O)N1CC(c2ccccc2)CC1=O (stereo not shown)	7.71%
CCN(CC(=O)Nc1ccc(NC(C)=O)cc1)C(=O)C1CC(=O)N(Cc2ccc(C)cc2)C1 (stereo not shown)	11.3%
O=C1CSC(c2ccccn2)N1c1ccc(C(F)(F)F)cc1 (stereo not shown)	-1.13%
Cc1cccc(NC(=O)COC(=O)CCc2c[nH]c3ccccc23)c1	6.93%
CCN(C(=N)N=C(N)N)c1ccccc1	9.71%
Cc1ccc(NC(=O)C2C3C=CC(O3)C2C(=O)O)cc1C (stereo not shown)	15.3%
Cl.c1csc(CNCCN2CCOCC2)c1	7.92%
COc1cc(/C=C2/C(=O)ON=C2C)ccc1OCc1cccc(F)c1	7.62%
Cc1ccc(C)n1-n1c(C)nc2scc(-c3ccccc3)c2c1=O	-5.82%
CCC(C)n1c(SCC(=O)/C(C#N)=C(\C)N)nc2ccccc2c1=O (stereo not shown)	5.48%
O=C(N/N=C/c1ccco1)c1cc(C2CC2)nc2ccccc12	11.2%
COc1ccccc1-n1cc(-c2ccc(Br)cc2)[nH]c1=S	12.5%
O=C1CN(c2ccc(Br)cc2)C(=O)N1CC(=O)N1CCCc2ccccc21	4.12%
Cc1nc(C)c(NC(=O)N2CCc3ccccc32)cc1NC(=O)N1CCc2ccccc21	7.68%
COCC(C)n1c(C)cc(C(=O)CSc2nnc(N)s2)c1C (stereo not shown)	4.27%
Cc1cccc(NC(=O)CSCC(=O)Nc2cc(S(=O)(=O)N3CCOCC3)ccc2OC(C)C)c1	-32.8%
COc1cc(OC)cc(C(=O)Nc2cccc3c2CCCC3)c1	15.1%
C/C(CC(=O)Nc1ccc(C)c(Cl)c1)=N\NC(=O)Cc1cccs1	3.38%

Compound	hERG current change (%, negative = inhibition) at 1uM
Cc1ccc(OCCC(=O)Nc2ccc(C)c(S(=O)(=O)N3CCOCC3)c2)cc1	10%
COCCCN1C(=O)C(=O)/C(=C(/O)c2ccccc2)C1c1ccc(N(C)C)cc1 (stereo not shown)	9.71%
CS(=O)(=O)Nc1ccccc1C(=O)NCc1ccco1	1.75%
O=C(Oc1ccc(=O)n(-c2ccccc2)n1)c1ccc(F)cc1	7.23%
CC(=O)N1N=C(c2ccccc2)OC1(C)CC(=O)Nc1ccccc1 (stereo not shown)	12.4%
COc1ccc(OCC(=O)N/N=C(\C)CC(=O)Nc2cccc([N+](=O)[O-])c2)cc1	-9.82%
COc1ccccc1S(=O)(=O)Cc1ccc(C(=O)N2CCOCC2)o1	5.84%
Cc1cc(N(C)C)ccc1[N+](=O)[O-]	3.19%
CCOC(=O)c1ccc(NC(=O)CSc2nc(NC(=O)c3ccccc3)c3c(C)c(C)oc3n2)cc1	19.6%
COc1ccccc1N1CCN(Cc2nc3ccccc3c(=O)n2CC(C)=O)CC1	10.1%
O=S1(=O)CCN(Cc2cccc(Cl)c2)CC1	-0.132%
CC1COC(=O)C(NNc2ccc(Cl)c(Cl)c2)=N1 (stereo not shown)	10.8%
CC(=O)Nc1ccc(Sc2ncnc3scc(-c4ccccc4)c23)cc1	0.454%
Cn1c(=O)[nH]c(=O)c2c1nc(CN1CCOCC1)n2CCCO	-3.71%
Cc1ccc2c(c1)cc(CN(Cc1ccc3c(c1)OCO3)C(=O)c1cnccn1)c1nnnn12	-2.8%
COc1cccc(NC(=O)Nc2nnc(N3CCCCC3C)s2)c1 (stereo not shown)	12.6%
CC(C)OC(=O)C1C2c3ccccc3C(c3ccccc32)C1C(=O)O (stereo not shown)	4.3%
CCOC(=O)N1CCN(c2c(NC3CCN(Cc4ccccc4)CC3)c(=O)c2=O)CC1	14.4%
Cc1ccn2c(Nc3ccccc3C)c(-c3cccnc3)nc2c1	-7.01%
Cc1ccc2c(c1)NC(=O)[C@@]1(C)[C@@H](c3ccccc3)[C@H]3COc4ccccc4[C@@H]3N1C2=O	18.1%
Cc1ccnc(NS(=O)(=O)c2ccc(NC(=O)C34CC5CC(CC(C5)C3)C4)cc2)n1	11.2%
CC(C)CN(C(=O)COc1ccc2ccc(=O)oc2c1)C1CCS(=O)(=O)C1 (stereo not shown)	22%
